# Laboratory results reported in PubChem BioAssay AID1030 (National Center for Advancing Translational Sciences (NCATS), 2008).
# Screen size: about 220,000 compounds; about 16,000 (7.3%) were called active. Inconclusive means that the source gave no clear call. Such entries were picked first, then a sample of the others. Calls follow the shape of the dose curve; as a rule, active = well fitted inhibition curve with a large enough effect (not every such curve was filed as active); inconclusive = small, poorly fitted or top-dose-only effect, or another doubt; inactive = no such curve, though single readings can be large or run the other way. No potency is given beside an inconclusive call; the fits are too rough.
# Molecular target: Aldehyde dehydrogenase 1A1 (Homo sapiens) (UniProt P00352)
# Sequence of UniProt P00352 (P00352 whole entry, looked up): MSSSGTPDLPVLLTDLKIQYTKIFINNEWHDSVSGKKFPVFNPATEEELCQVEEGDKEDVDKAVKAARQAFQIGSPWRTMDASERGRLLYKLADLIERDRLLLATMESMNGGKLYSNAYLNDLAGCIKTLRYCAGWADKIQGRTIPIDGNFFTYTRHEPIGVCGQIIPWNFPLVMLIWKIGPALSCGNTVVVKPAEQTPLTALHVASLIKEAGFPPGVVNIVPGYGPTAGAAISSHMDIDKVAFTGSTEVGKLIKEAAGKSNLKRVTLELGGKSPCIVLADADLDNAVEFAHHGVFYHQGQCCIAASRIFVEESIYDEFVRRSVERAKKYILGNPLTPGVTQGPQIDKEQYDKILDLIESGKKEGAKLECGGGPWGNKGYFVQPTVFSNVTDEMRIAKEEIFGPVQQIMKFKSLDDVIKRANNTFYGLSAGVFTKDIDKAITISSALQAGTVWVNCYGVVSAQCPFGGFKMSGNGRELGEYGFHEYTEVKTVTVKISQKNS
# Assay: qHTS Assay for Inhibitors of Aldehyde Dehydrogenase 1 (ALDH1A1)
# Settings: Purified ALDH1A1, NADH fluorescence, propionaldehyde substrate; series mostly up to 75.3 µM
# Potency is read from the fitted curve at half-maximal effect; tags tell the direction and shape of the fitted curve.
row,SMILES,Potency
1,O=C(COc1ccccc1/C=C\c1nc(O)c([N+](=O)[O-])c(=O)[nH]1)Nc1ccccc1,"inconclusive [inhibitor, single point]"
2,CCN(CC)c1c([N+](=O)[O-])c(=O)n(C)c2ccccc12,inactive
3,CCOc1ccc(N=C2SC(C(=O)Nc3ccccc3C#N)C(N)=C2C(=O)Nc2ccc(Cl)cc2)cc1 (configuration not stated),"inconclusive [inhibitor, partial curve]"
4,COc1ccc(C(=O)N2CCC3(CC2)CCN(c2ccccn2)CC3)cc1,"inconclusive [inhibitor, single point]"
5,CCCCN=c1sc(C(=O)OC)cc(=O)n1CCCC,"inconclusive [inhibitor, single point]"
6,O=C1C=CC(=O)N1c1cccc(-c2ccccc2)c1,active: 0.02 µM
7,CCOc1ccc(S(=O)(=O)N/N=C(\C)c2ccc(OC)cc2OC)cc1,active: 22.4 µM
8,CCCc1[nH]nc2c1C(c1cc(OC)ccc1F)C(C#N)=C(N)O2 (configuration not stated),"inconclusive [inhibitor, partial curve]"
9,O=C1CCCc2ccccc2N1Cc1ccc(F)cc1,inactive
10,CCOc1ccc(C(=O)NC(=S)Nc2cccc(S(=O)(=O)NC3=NCCC3)c2)cc1,"inconclusive [inhibitor, single point]"
11,O=C(Nc1ccc(F)c(Cl)c1)NC1CC1,"inconclusive [inhibitor, single point]"
12,O=C(Cc1ccc2c(c1)CCCC2)Nc1ccc2ccccc2c1,active: 22.4 µM
13,COC(=O)c1c(NC(=O)C2(C)Cc3ccccc3C(=O)O2)sc2c1CCCC2 (configuration not stated),"inconclusive [inhibitor, single point]"
14,O=C(CSc1ncnc2c1oc1ccccc12)Nc1ccccc1C(F)(F)F,inactive
15,Cc1ccc(C(=O)Nc2ccc(S(=O)(=O)NCc3ccco3)cc2)cc1,"inconclusive [inhibitor, partial curve]"
16,CCN(C(=O)CSc1nc2ccccc2n1CC)C1CCS(=O)(=O)C1 (configuration not stated),inactive
17,COc1ccc(C2SCCN2C(=S)Nc2ccc(Cl)cc2)cc1 (configuration not stated),"inconclusive [inhibitor, single point]"
18,COC(=O)c1cc(NC(=O)c2cccc(C(F)(F)F)c2)c(=O)oc1C/C=N/OCc1cccc(Cl)c1Cl,inactive
19,N#Cc1cn(-c2ccccc2)nc1-c1ccccc1,inactive
20,CC(=Nc1ccc2c(c1)nc(CO)n2C)C1=C(O)CC(C)(C)CC1=O,"inconclusive [inhibitor, single point]"
21,Cc1ccc2c(C(=O)N3CCN(c4ccccc4)CC3)cc(-c3cccnc3)nc2c1C,"inconclusive [inhibitor, partial curve]"
22,COc1ccc(C2C(C#N)=C(N)Oc3cc(C)n(Cc4ccncc4)c(=O)c32)cc1 (configuration not stated),"inconclusive [inhibitor, partial curve]"
23,CCCCOc1cc(C)nc(NCc2ccccc2)n1,"inconclusive [inhibitor, single point]"
24,O=S1(=O)C=C(N2CCCCC2)c2ccccc21,"inconclusive [inhibitor, single point]"

row,SMILES,Potency
1,COCCn1c(N)c(C(=O)NCc2cccs2)c2nc3ccccc3nc21,"inconclusive [inhibitor, partial curve]"
2,CC(=O)Nc1ccc(S(=O)(=O)N(C)CC(=O)N/N=C/c2cccc(O)c2)cc1,"inconclusive [inhibitor, single point]"
3,COc1ccc(-c2c(C#N)c(N)nc3sc(C(=O)c4ccccc4)c(N)c23)cc1,active: 3.98 µM
4,COc1cccc(-n2c(SCC(N)=O)nc3ccccc3c2=O)c1,inactive
5,CCSC1=C(C#N)C(c2ccc(Cl)cc2)C2=C(CCCC2=O)N1 (configuration not stated),inactive
6,O=C1c2ccsc2SCCN1Cc1cccc(Cl)c1,"inconclusive [inhibitor, partial curve]"
7,O=c1[nH]c2ccccc2c2oc(CCl)nc12,"inconclusive [inhibitor, single point]"
8,Cc1ccc(C(=O)N2CCN(C(=O)c3ccc(C)cc3)C2)cc1,"inconclusive [inhibitor, single point]"
9,COc1cc(/C=C/C(=O)OCC(=O)N2CCC(Cc3ccccc3)CC2)ccc1O,"inconclusive [inhibitor, single point]"
10,Cc1ccc(S(=O)(=O)N/N=C\c2cc3c(cc2Br)OCO3)cc1,inactive
11,CCC(CC)NC(=O)COC(=O)c1cccc(C)c1O,inactive
12,O=C(Nc1ccncc1NC(=O)c1cccc([N+](=O)[O-])c1)c1cccc([N+](=O)[O-])c1,inactive
13,Cc1nc2ccccc2nc1CN1CCN(Cc2ccc(F)c(F)c2)C(CCO)C1 (configuration not stated),"inconclusive [inhibitor, single point]"
14,Cc1ccc2c(c1)CC[C@H]1CC(=O)CC[C@@]21C,"inconclusive [inhibitor, single point]"
15,COc1ccc(O[C@H]2C=C[C@@H](c3ccccc3)O[C@@H]2COC(=O)CC/C(C)=N/OC[C@@H](O)[C@H]2O[C@@H]3OC(C)(C)O[C@@H]3[C@H]2O)cc1,inactive
16,COCCNC(=O)c1ccccc1NC(=O)CCSc1ccccc1,"inconclusive [inhibitor, single point]"
17,Cc1ccsc1CNC12CC3CC(CC(C3)C1)C2,inactive
18,Cc1cc(C(=O)CN2C(=O)C3CC=CCC3C2=O)c(C)n1-c1ccccc1 (configuration not stated),active: 22.4 µM
19,COc1cc2c3nnc(-c4ccc(F)cc4)c-3cn(Cc3ccc(C)cc3)c2cc1OC,active: 4.47 µM
20,O=C(NCc1cccnc1)c1cc(Sc2ccccc2Cl)nc2ccccc12,active: 7.94 µM
21,c1ccc(Cn2nnc3c(N4CCOCC4)ncnc32)cc1,"inconclusive [inhibitor, single point]"
22,Cn1cccc1C(=O)N1CCC2(CC1)CN(Cc1ccc(C#N)cc1)C2,inactive
23,CC(C)(C)OC(=O)NCCCCCc1nnc(SCC(=O)Nc2cccc(Cl)c2)o1,"inconclusive [inhibitor, partial curve]"
